# Laboratory results published in the supplement of paper PMC7826260.
# The list shows a part of the results. Viral Rep nickase domains cut single-stranded DNA in vitro for 1 h at 37 °C with 3 µM enzyme; only the middle of the 90-letter strands is printed. A value is the log2 ratio of uncut reads to the pool without enzyme; the lower, the more was cut; hits are not called. Shares of all reads are compared; uncut strands gain when others are lost, and binding without cutting may add a little.
# How the values were obtained:
# Assay in all cases: uncleaved DNA left, log2 of reads against the no-enzyme library (log2 ratio); higher = less cleavage (more negative = more Rep cleavage of the k-mer); sequences stand for … in CTCGTCCG…ACCGGAGA
# [1] = tested on: T1, Rep nickase domain of Muscovy duck circovirus
# T1 sequence (residues 1-111 of Rep, tag left off): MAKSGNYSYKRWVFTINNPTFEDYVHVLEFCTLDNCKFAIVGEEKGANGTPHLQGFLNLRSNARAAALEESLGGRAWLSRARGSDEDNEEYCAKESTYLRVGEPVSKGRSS
# Description: (§1)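 A pool of 90-nt single-stranded DNAs with seven random bases just before the constant AC of the nick site (name = the seven bases) was cut by 3 µM recombinant His6-SUMO-tagged Rep nickase domain (300 nM DNA, 50 mM HEPES pH 8.0, 50 mM NaCl, 1 mM MnCl2, 1 h, 37 °C, three replicates). Uncut DNA was amplified and sequenced.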
# [2] = tested on: T2, Rep nickase domain of banana bunchy top virus
# T2 sequence (residues 1-94 of Rep, tag left off): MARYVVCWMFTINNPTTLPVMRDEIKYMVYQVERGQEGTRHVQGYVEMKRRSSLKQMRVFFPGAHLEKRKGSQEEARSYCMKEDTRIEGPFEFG
# Description: as §1
# [3] = tested on: T3, Rep nickase domain of cabbage leaf curl virus
# T3 sequence (residues 1-116 of Rep, tag left off): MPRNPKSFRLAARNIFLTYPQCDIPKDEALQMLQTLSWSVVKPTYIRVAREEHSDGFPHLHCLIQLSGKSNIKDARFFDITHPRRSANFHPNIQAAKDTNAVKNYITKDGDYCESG
# Description: as §1
# [4] = tested on: T4, Rep nickase domain of chickpea chlorotic dwarf virus
# T4 sequence (residues 1-124 of Rep, tag left off): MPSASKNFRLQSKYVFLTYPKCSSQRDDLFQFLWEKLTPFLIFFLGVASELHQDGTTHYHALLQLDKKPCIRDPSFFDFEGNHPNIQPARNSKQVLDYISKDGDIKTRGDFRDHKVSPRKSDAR
# Description: as §1
# [5] = tested on: T5, Rep nickase domain of faba bean necrotic yellows virus
# T5 sequence (residues 1-98 of Rep, tag left off): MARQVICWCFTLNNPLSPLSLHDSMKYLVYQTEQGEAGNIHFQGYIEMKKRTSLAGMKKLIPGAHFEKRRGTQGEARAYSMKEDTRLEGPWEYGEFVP
# Description: as §1
# [6] = tested on: T6, Rep nickase domain of maize striate mosaic virus
# T6 sequence (residues 1-117 of Rep, tag left off): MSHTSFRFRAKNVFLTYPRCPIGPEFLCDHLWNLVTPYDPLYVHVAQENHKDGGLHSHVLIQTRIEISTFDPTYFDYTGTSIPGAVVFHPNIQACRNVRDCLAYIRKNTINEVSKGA
# Description: as §1
# [7] = tested on: T7, Rep nickase domain of porcine circovirus 2
# T7 sequence (residues 2-116 of Rep, tag left off): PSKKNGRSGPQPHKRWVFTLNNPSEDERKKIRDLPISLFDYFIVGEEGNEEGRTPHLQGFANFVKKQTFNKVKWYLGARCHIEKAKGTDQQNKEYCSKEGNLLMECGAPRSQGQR
# Description: as §1
# [8] = tested on: T8, Rep nickase domain of tomato golden mosaic virus
# T8 sequence (residues 1-124 of Rep, tag left off): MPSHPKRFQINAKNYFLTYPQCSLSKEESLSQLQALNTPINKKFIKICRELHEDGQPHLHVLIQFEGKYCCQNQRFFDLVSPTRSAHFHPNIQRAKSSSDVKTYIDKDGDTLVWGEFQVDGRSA
# Description: as §1
# [9] = tested on: T9, Rep nickase domain of tomato yellow leaf curl virus
# T9 sequence (residues 1-136 of Rep, tag left off): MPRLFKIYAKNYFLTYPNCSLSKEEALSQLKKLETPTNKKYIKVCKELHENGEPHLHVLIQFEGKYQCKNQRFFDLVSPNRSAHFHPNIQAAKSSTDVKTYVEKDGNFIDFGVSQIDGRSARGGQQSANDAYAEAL
# Description: as §1
# [10] = tested on: T10, Rep nickase domain of wheat dwarf virus
# T10 sequence (residues 1-137 of Rep, tag left off): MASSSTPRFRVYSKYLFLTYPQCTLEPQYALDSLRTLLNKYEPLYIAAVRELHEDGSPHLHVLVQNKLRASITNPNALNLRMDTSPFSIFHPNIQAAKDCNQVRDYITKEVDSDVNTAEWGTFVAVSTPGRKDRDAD
# Description: as §1
Sequence,uncleaved DNA left (log2) [1],uncleaved DNA left (log2) [2],uncleaved DNA left (log2) [3],uncleaved DNA left (log2) [4],uncleaved DNA left (log2) [5],uncleaved DNA left (log2) [6],uncleaved DNA left (log2) [7],uncleaved DNA left (log2) [8],uncleaved DNA left (log2) [9],uncleaved DNA left (log2) [10]
AAGTCCC,0.0858,-0.0875,0.115,-0.519,-0.0121,0.0132,-2.95,0.00727,-0.0332,0.105
GCTTTCG,0.00323,-0.0851,-0.772,-0.24,-0.136,-0.939,0.104,-0.256,-0.0896,-0.11
GTCAGCG,-0.125,0.0314,-0.778,-0.457,-0.19,-1.03,0.0913,-0.0778,0.0226,-0.123
ACTGCGA,0.0223,0.0304,-0.485,0.303,-0.0758,-0.386,0.068,0.0294,-0.0331,-0.19
AGAACCC,0.168,0.118,0.705,1.67,0.172,2.05,0.202,0.011,0.129,0.265
GAGATCT,0.0882,-0.152,0.449,-0.671,-0.0925,1.67,-2.67,0.152,0.15,0.261
TCAAGTA,0.0595,0.169,0.104,-0.717,0.159,-0.372,-0.0012,0.125,0.139,0.0356
TGGAAGG,0.168,0.132,0.511,1.15,0.116,1.06,0.182,0.116,0.0695,0.182
AACGTGT,0.0997,0.105,-0.143,-0.325,0.0659,-0.0481,0.109,0.0759,0.107,0.0499
TTCAAGA,0.00394,0.000408,0.246,0.278,0.0631,-0.458,0.0353,0.0315,0.0457,0.0469
GACACCA,-0.00744,0.0487,0.327,-0.659,0.0403,0.776,-0.0326,0.0428,-0.0148,0.0617
CTCTAGC,-0.092,-0.0448,-0.438,-0.413,0.0673,-0.844,0.0721,-0.093,-0.0145,0.0165
TCGGAAA,0.149,0.0919,0.41,0.592,0.112,0.394,0.163,0.174,0.0278,0.225
ACACGAG,0.0158,-0.0315,0.151,1.16,-0.0169,-0.119,0.0376,-0.0248,-0.0977,-0.0119
TTTGATG,-0.0829,-0.184,-0.528,-0.664,-0.0961,-1.15,-0.0625,-0.0368,-0.216,-0.0796
GCCGACC,-0.154,0.00639,-0.035,0.301,-0.0271,-0.206,-0.00871,0.0265,-0.0693,-0.131
ACTTCTA,-0.133,-0.0854,-0.188,-1.65,0.148,-0.665,-0.121,0.0387,-0.0173,0.0172
AATTGAG,0.00503,0.0414,-0.436,0.909,0.0922,-0.0905,0.125,0.0021,0.158,-0.0173
CGGCGAG,0.0626,-0.116,-0.0433,0.329,-0.103,-0.282,0.0153,-0.027,-0.0227,0.0661
CACATAT,0.199,0.0409,-0.142,-1.79,0.00503,-0.676,-0.496,-0.084,0.0108,0.125
GAACTCG,-0.0814,0.0266,-0.796,-0.965,-0.0696,-0.805,-0.0303,-0.0289,-0.121,-0.152
TTTGTGT,0.0146,0.0142,-0.663,-0.887,0.0896,-1.15,0.0885,0.000591,0.0514,-0.123
TGTCCGC,-0.0107,-0.0773,0.0293,-0.362,-0.0822,-0.575,0.0265,-0.077,0.123,0.0402
CCTGCTT,0.0328,-0.104,-0.201,-1.79,-0.00447,-0.684,-0.437,0.0352,-0.0488,-0.233
TTGTTAT,-0.383,-0.0105,0.244,-0.422,-0.0881,-0.187,-2.54,-0.00536,0.14,0.132
GAGTTTA,-0.0331,0.0855,0.202,-0.58,-0.0531,1.02,-2.23,0.0674,0.0677,0.232
CTTTAGT,-2.57,-0.134,-0.0925,-0.814,0.0894,-0.964,-3.27,-0.0625,0.0578,-0.0808
TTCCGTG,0.0352,0.123,0.333,-0.00174,0.0471,-0.0519,0.0961,-0.0513,0.174,0.127
CTATCAC,-0.131,-0.0032,-0.0734,-0.46,-0.159,-0.77,0.0353,-0.268,-0.0511,0.00088
TAAGACC,0.00364,0.11,-0.174,-1.37,0.0463,-0.431,0.112,0.0132,0.0196,-0.022
